44 molecules from paper PMC4336329 (PLoS ONE, 2015) can be followed below.

Structures are written as SMILES. The whole screen tested about 310,000 compounds, of which about 2,200 (0.71%) showed an effect of 50% or more. The effect is printed as a negative number. Some of the results follow.

human ether-à-go-go-related gene (hERG) potassium channel, sequence (Q12809 whole entry, looked up): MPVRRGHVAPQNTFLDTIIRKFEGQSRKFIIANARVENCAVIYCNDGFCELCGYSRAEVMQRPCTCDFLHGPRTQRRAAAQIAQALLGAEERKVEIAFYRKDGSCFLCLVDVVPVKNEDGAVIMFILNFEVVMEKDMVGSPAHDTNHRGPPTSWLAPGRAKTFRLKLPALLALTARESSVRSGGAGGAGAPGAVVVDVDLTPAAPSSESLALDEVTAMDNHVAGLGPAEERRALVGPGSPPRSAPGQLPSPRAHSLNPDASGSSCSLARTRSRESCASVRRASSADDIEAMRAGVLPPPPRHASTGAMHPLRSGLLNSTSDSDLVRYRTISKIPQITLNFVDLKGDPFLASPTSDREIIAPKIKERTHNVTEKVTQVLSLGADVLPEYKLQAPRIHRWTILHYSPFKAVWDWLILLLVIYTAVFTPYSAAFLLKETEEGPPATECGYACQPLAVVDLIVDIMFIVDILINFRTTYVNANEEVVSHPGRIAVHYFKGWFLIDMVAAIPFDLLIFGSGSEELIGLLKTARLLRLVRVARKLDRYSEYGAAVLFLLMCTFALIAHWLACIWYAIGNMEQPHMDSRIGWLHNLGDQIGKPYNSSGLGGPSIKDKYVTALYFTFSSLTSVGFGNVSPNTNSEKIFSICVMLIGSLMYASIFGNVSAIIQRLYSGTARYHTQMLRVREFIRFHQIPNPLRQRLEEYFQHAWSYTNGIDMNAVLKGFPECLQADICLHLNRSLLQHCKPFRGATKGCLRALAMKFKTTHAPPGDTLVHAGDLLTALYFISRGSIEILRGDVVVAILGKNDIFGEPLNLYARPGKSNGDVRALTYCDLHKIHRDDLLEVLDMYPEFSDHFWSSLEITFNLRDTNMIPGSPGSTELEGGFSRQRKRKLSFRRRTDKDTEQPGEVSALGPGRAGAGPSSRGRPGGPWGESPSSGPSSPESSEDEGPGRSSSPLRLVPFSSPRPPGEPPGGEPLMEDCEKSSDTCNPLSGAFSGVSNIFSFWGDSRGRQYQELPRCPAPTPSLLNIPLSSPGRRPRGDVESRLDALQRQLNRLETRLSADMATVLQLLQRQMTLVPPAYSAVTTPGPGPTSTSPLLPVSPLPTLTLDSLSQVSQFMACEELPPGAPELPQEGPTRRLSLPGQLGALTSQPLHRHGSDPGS

The assay addresses human ether-à-go-go-related gene (hERG) potassium channel (human, UniProt Q12809). Nature of the assay: primary screen, population patch clamp on CHO cells stably expressing hERG.
With `Cc1cc(C)n2c(SCC(=O)NC3CCCCC3)nnc2n1`, the “hERG current change (%, negative = inhibition) at 1uM” value came to 13.5%.
As for `CCOc1ccc(CCNC(=O)COC(=O)/C=C/c2ccccc2)cc1OCC`, the “hERG current change (%, negative = inhibition) at 1uM” value was 11.5%.
On to `Cc1cc(C(C)(C)C)n2nc(C)c(-c3ccccc3)c2n1`, for which the “hERG current change (%, negative = inhibition) at 1uM” value came to 6.99%.
Turning to `O=C(CNC(=O)c1ccc(Br)o1)Nc1cccc(-c2cnc3ccccc3n2)c1`, the “hERG current change (%, negative = inhibition) at 1uM” value is given as 0.414%.
With `Cc1c(C(=O)N/N=C/c2ccoc2)cccc1[N+](=O)[O-]`, the “hERG current change (%, negative = inhibition) at 1uM” value is recorded as 9.46%.
The result for `COc1ccc(N2CCN(Cc3nc4c(c(=O)[nH]c(=O)n4C)n3Cc3cccc(Cl)c3)CC2)cc1` reads 1.9%; that for `Fc1ccc(N2CCN(C3=Nc4cccc5cccc3c45)CC2)cc1`, -69.4%; that for `O=C(O)CC1OCC=C2CN3CCC45C6=CC(=O)C(=O)C([N+](=O)[O-])=C6NC4C1C2CC35` (centres unmarked), 10.3%.
Take `COc1ccc(-c2csc(Nc3ccccc3)[n+]2Cc2ccccc2)cc1.[Br-]`: the “hERG current change (%, negative = inhibition) at 1uM” value came out at 16.7%.
`CN(C)C=Nc1nonc1-c1ccccc1`: the “hERG current change (%, negative = inhibition) at 1uM” value came to 2.8%.
In the case of `COc1cc(CCC(=O)OCC(=O)Nc2ccc(C)cc2Br)cc(OC)c1OC` it was 6.77%.
In the case of `CC(=O)c1cccc(-n2c(CCC(=O)O)ccc2-c2ccc(C)cc2)c1` it was 12.4%; in that of `CCCCCCCCOC1OC(CO)C(O)C(O)C1NC(C)=O` (centres unmarked), 5.19%; in that of `CCOc1ccc(-n2nnnc2SCC(=O)c2ccccc2)cc1`, 5.5%.
As to `Cc1ccc(C(=O)O)cc1NC(=S)NCCc1ccccc1`, the “hERG current change (%, negative = inhibition) at 1uM” value was found to be 10.6%.
For `O=[N+]([O-])c1cccc(S(=O)(=O)N2CCCCC2c2cccnc2)c1` (centres unmarked), the “hERG current change (%, negative = inhibition) at 1uM” value was -9.87%.
In the case of `CCOC(=O)N1CCN(CCC(=O)c2ccc(Cl)cc2)CC1.Cl`, the “hERG current change (%, negative = inhibition) at 1uM” value is given as -16.7%.
On to `COc1ccccc1CN1C(=NC(=O)C2CCCCC2)SC2CS(=O)(=O)CC21` (centres unmarked), for which the “hERG current change (%, negative = inhibition) at 1uM” value is given as 14.8%.
In the case of `Cc1ccc(C2=NNC(=O)C(c3c[nH]c4ccccc34)C2)cc1` (centres unmarked), the “hERG current change (%, negative = inhibition) at 1uM” value is on record as 12.7%.
Turning to `CSc1ccc(/C=N\NC(=O)CC(=O)NC(C)C)cc1`, the “hERG current change (%, negative = inhibition) at 1uM” value is 10.7%.
Turning to `S=C(NCC1CCCO1)Nc1ccc(Cl)c(Cl)c1` (centres unmarked), the “hERG current change (%, negative = inhibition) at 1uM” value came to 11.2%.
The result for `NNC(=O)c1cn2ccccc2n1` reads 4%; that for `COc1ccc(CCNC(=O)CSc2nncs2)cc1`, 13.7%; that for `COc1ccc(CCNC(=O)CSc2nc(-c3ccco3)cc(C(F)(F)F)n2)cc1OC`, -1.48%.
In the case of `CCOc1ccc(CCNC(=O)CCC(=O)N2CCOc3ccccc32)cc1OCC` it was 3.56%; in that of `COc1ccc(NC(=O)CSc2nnc(-c3ccncc3)o2)c([N+](=O)[O-])c1`, 13.9%.
As to `CCC(C)(C)NC(=O)C(Sc1ccccc1)c1ccccc1` (centres unmarked), the “hERG current change (%, negative = inhibition) at 1uM” value stood at 12.3%.
Turning to `COc1ccc(CCN(C)C(=O)CN2C(=O)NC3(CCCc4ccccc43)C2=O)cc1OC` (centres unmarked), the “hERG current change (%, negative = inhibition) at 1uM” value was 21.7%.
As for `O=C(NCc1ccco1)c1ccc2c(=O)n(CC3CCCO3)c(=S)[nH]c2c1` (centres unmarked), the “hERG current change (%, negative = inhibition) at 1uM” value is 4.98%.
In the case of `CC1(C)Cc2c(c(N3CCOCC3)nc3sc(-c4ccc(C(=O)O)o4)c(N)c23)CO1` it was -12.7%.
On to `CCOC(=O)c1c(S(=O)(=O)N2CCCC(C)C2)c(C)n(C)c1C` (centres unmarked), for which the “hERG current change (%, negative = inhibition) at 1uM” value is 6.38%.
In the case of `CCOc1ccccc1NC(=O)CN(c1nccs1)S(=O)(=O)c1ccc(N)cc1` it was 9.61%; in that of `O=C(N/N=C/c1ccc2c(c1)OCO2)c1ccccn1`, 8.97%; in that of `COC(=O)CNC(=O)C1Nc2ccccc2C2C=CCC12` (centres unmarked), 1.16%.
Consider `CC(NC(=O)Cn1nc(-c2ccccc2)ccc1=O)c1ccccc1` (centres unmarked), for which the “hERG current change (%, negative = inhibition) at 1uM” value is recorded as 5.99%.
The result for `Cc1nnc(SCCCN2C(=O)c3ccccc3C2=O)o1` reads 1.63%.
With `CCOCCCNC(=O)CCc1ccc(-n2cnc3cccnc32)cc1`, the “hERG current change (%, negative = inhibition) at 1uM” value came out at 12.4%.
As to `Cc1ccc(C2CC(=O)NC(SCc3ccccc3)=C2C#N)o1` (centres unmarked), the “hERG current change (%, negative = inhibition) at 1uM” value is reported as 2.19%.
As to `COc1ccc(OC)c(N(CC(=O)Nc2cccnc2)S(=O)(=O)c2ccc(C)cc2)c1`, the “hERG current change (%, negative = inhibition) at 1uM” value came to 10.1%.
As for `CCOC(=O)NC(=O)CSc1ccc(C)cc1C`, the “hERG current change (%, negative = inhibition) at 1uM” value stood at 11.4%.
The result for `c1ccc2c(c1)nc(CN1CCOCC1)n1c3ccccc3nc21` reads -13.9%.
In the case of `COc1ccc(Cl)cc1NC(=O)C1Cc2cc(S(=O)(=O)N3CCCC3)ccc2N1C(C)=O` (centres unmarked) it was 3.74%.
Regarding `Cc1[nH]nc2ncc(C(=O)c3cc(F)ccc3O)cc12`, the “hERG current change (%, negative = inhibition) at 1uM” value was 10.2%.
Turning to `O=C(Nc1ccc(Cl)c(-c2nc3ccccc3[nH]2)c1)c1ccc2c(c1)OCO2`, the “hERG current change (%, negative = inhibition) at 1uM” value is given as -2.05%.
